Consider 45 sequences from the supplement of paper PMC11417369.

The list shows a part of the results.

In the experiment the test system is PfHDP1 homeodomain (GST-tagged). The experiment can be described thus: gcPBM binding intensity (ln(normalized median fluorescence intensity)); higher = stronger DNA binding. The procedure, abridged:
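Binding intensity values are the highest Masliner-normalised natural-log median intensity among replicate spots of either probe orientation. The binding step lasted 1 h in 1× PBS with 1% milk, 0.2 mg/ml BSA, 0.5% salmon testes DNA and 0.03% Triton X-100, using GST-tagged P. falciparum DNA-binding domains expressed in E. coli on an Agilent 4 × 180k array of primer-extended double-stranded 36-bp intergenic genomic probes plus negative controls. Alexa488 anti-GST antibody and a 488 nm scan detected bound protein.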
For “TTATTAAAAAAAATATGTACTCACAATATAATATAT [XGTACX_site3738]”, the “gcPBM binding intensity (ln)” value came out at 6.42. In the case of “ACCATCCTTAATACTTATTTTTTCACAATTAAGTAA [GTGCAC_negctrl_site269]”, the “gcPBM binding intensity (ln)” value is 6.56. Take “TATATATATATAACATGTACATAAAATACATTTATA [XGTACX_site7370]”: the “gcPBM binding intensity (ln)” value stood at 8.93. With “ACATTATATAAAATATGTACACATAAATAAATAAAT [XGTACX_site5031]” the figure was 6.68. The same measure for “TCATATTATAAAAAATGTACAAGGAAAAAATATATA [XGTACX_site337]”: 7.14; for “TAATTTTGTAAAAATTGTACATATTTATCTTTTTAT [XGTACX_site4305]”: 6.06. As for “AAAAAAAAAAAAAACACACACATATAATATATTTAA [CACACA_site1337]”, the “gcPBM binding intensity (ln)” value is 6.35. With “CCTACAATTCGTAATACACACACATATATATATATA [CACACA_site9251]” the figure was 9.17. Regarding “AAAAAATTCAAAATCACACATAAAAAAGGACACATA [CACACA_site5972]”, the “gcPBM binding intensity (ln)” value worked out at 6.86.

“ATAATAATATTATTTTGTACATATGTGCTTATTTAT [XGTACX_site5540]”: the “gcPBM binding intensity (ln)” value turned out to be 7.11. “AGTAATAAGTAATTTACACACATATTATAGCATCAC [CACACA_site6971]”: the “gcPBM binding intensity (ln)” value worked out at 6.64. With “TTTTGTCAACATTTTTATATTAGGTCTTGAACGATT [GTGCAC_negctrl_site72]” the figure was 6.25; with “GTATAATTTAAAAAGTGTACATAAAGTTTTTATTAA [XGTACX_site1090]”, 6.18.

Turning to “TTATTACCATATTTTGTACACACATCTTTATCTCAA [CACACA_site9054]”, the “gcPBM binding intensity (ln)” value came out at 7.02. The same measure for “CTTGGGCGTCATAATGAACACACAATTATATTATGA [CACACA_site9297]”: 6.13; for “ATATATACAAATCCTTTTTTCCAAGATGGAAAAAGA [CACACA_negctrl_site382]”: 6.21. In the case of “AAAATAATAAATAACGCATGCGTGTGCATTTTATTC [TGCATGCA_site898]”, the “gcPBM binding intensity (ln)” value was 9.97. With “TATATATAAGCGCATGCACACGCAAAGGTATATAAA [CACACA_site8107]” the figure was 8.49; with “ATTATATAATCTATATGTACATATATATATATATAT [XGTACX_site4970]”, 9.36; with “TTTTTTTTTTACTTCACACATATACATTTATATTTA [CACACA_site4385]”, 6.8. With “TAAACATACAGATACACACACACACCCACAGAGACA [CACACA_site4429]” the figure was 7.07. The same measure for “ATATATATGGTCATTTGTACATATCGTGAGAGCTGC [XGTACX_site4117]”: 6.55. Consider “ATATAACATAATGGATGTACATGTATAAATATAAAA [XGTACX_site8228]”, for which the “gcPBM binding intensity (ln)” value was determined as 7.06. With “AGAATCACCAAATATGTACACACCTTAACATGTTTA [CACACA_site2068]” the figure was 6.77.

For the sequence “TATATTATAAATTAATGTACGTAATTTTTTTTTTTT [XGTACX_site2500]”, the “gcPBM binding intensity (ln)” value was 6.17. The same measure for “ATAATGAAGACTTTTTTACACACTTCATATATTATA [CACACA_site8630]”: 6.98; for TGATATTTTTCCATAGTGCAAAATATAGTAATGTAT: 9.38; for “AAATTGTTAAAAAGAAGTACATTCTTTTATTTCTTA [XGTACX_site540]”: 6.06.

Consider “TAAATGTGTATATATTGTACAAATATTAATACATAC [XGTACX_site8102]”, for which the “gcPBM binding intensity (ln)” value came out at 6.62.

Regarding “AAAGAACTTAATGCTGCACACAAAAAAAAGGAAAAA [CACACA_site8375]”, the “gcPBM binding intensity (ln)” value amounted to 7.33. With “AGAACGACTAAGCAGTGTACATTTTGTATATACAAT [XGTACX_site2831]” the figure was 6.5; with “TTACATACATACAAGTGTACGCATATATTAATATTA [XGTACX_site4006]”, 6.71. With TTTAACATTTCAGATGTGCACATTTTCCGAACCAGT, the “gcPBM binding intensity (ln)” value came to 10.9. In the case of “ATATGTACAAGTTATACACACATGTACAGTTATATA [CACACA_site6706]”, the “gcPBM binding intensity (ln)” value amounted to 6.82.

Regarding “AGTATACATATATATACACACACATATATATATATA [CACACA_site7883]”, the “gcPBM binding intensity (ln)” value amounted to 9.29. The same measure for “CTTATATGAAGCCTCTTTATTCATAAATAAGAATAA [TGCATGCA_negctrl_site120]”: 6.16. The same measure for “CCAACATAGAGGGGCACACACATATATACATAAAAA [CACACA_site1847]”: 6.7. Consider “TTAACAAAATTTCCGTGTACGTAAATAAGAACATAG [XGTACX_site7200]”, for which the “gcPBM binding intensity (ln)” value amounted to 6.64. Regarding “AAACAACATGGACACGCACACACAAAAAAAGCATGC [CACACA_site73]”, the “gcPBM binding intensity (ln)” value amounted to 6.85. Turning to “ATGAATATAAAATATACACACTTATATATTGAATGA [CACACA_site4274]”, the “gcPBM binding intensity (ln)” value is 6.35. The same measure for “GTTAATTCATTAAGGACACACAAAAAAAAAAAAAAA [CACACA_site998]”: 6.25; for “GATTAAATTTGACACTGTACAAAAAATAAAATGAGG [XGTACX_site504]”: 6.79. With “AGAAAAAAACGGTACAGTACACATAAACTAATTATT [XGTACX_site8617]” the figure was 6.44; with “TATTATATATGGAAGTAATAATATATATATATATAT [GTGCAC_negctrl_site63]”, 9.07.

Take “ACAAACTAAAAAAGAAGTACAAATCGTATTAATAAT [XGTACX_site8684]”: the “gcPBM binding intensity (ln)” value worked out at 6.6.
